The supplement of paper PMC3724861
This is one part of the list.

System: T1, Caupolican (Caup) homeodomain DNA-binding domain
T1 sequence: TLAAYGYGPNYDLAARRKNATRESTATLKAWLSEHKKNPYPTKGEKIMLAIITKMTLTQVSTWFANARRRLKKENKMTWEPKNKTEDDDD
Test: PBM E-score (8-mer, recovered from the published 9-mer minima) (E-score (dimensionless, -0.5 to 0.5)); Drosophila protein; higher = stronger relative binding preference, active = 0.31 or more
How it was run: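 Caup's homeodomain DNA-binding domain (residues 214-303) was produced by in vitro transcription and translation and applied at 100 nM to custom-designed protein binding microarrays. Each value is an enrichment score giving relative binding preference for a short DNA word; higher means stronger. Published 9-mer scores were the minimum of their two constituent 8-mer scores, and the 8-mer values were recovered from those minima. A cutoff of 0.31 marks candidate binding sequences.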

| Sequence | PBM E-score |
| --- | --- |
| ACGGAAAC | inactive: 0.0383 |
| ACCGTTAA | ≥ 0.119 |
| GAGTTTGA | inactive: 0.0834 |
| CACGATAA | inactive: 0.183 |
| CATGCCGC | inactive: 0.00111 |
| CAACCTGA | inactive: 0.0692 |
| CGTTCATA | inactive: 0.0398 |
| GATCGCGC | inactive: -0.101 |
| TCCCTAGA | inactive: -0.0924 |
| ACATCTTC | inactive: 0.196 |
| AAGAGGCT | inactive: -0.0755 |
| GGTCGGCA | inactive: -0.214 |
| TCAACGGA | inactive: -0.0126 |
| CAACGATC | inactive: -0.00232 |
| AAAGGCAG | inactive: -0.00303 |
| TAGTGGCA | inactive: -0.069 |
| AGTCGAGA | inactive: -0.0542 |
| ATCATCGA | inactive: 0.124 |
| ATAGAACG | inactive: 0.0985 |
| TACGCAAA | inactive: 0.0727 |
| ATTGGTCA | inactive: 0.0786 |
| AGGAGCGA | inactive: -0.149 |
| ATCCGGCA | ≥ -0.019 |
| ATGACTAG | inactive: 0.176 |

| Sequence | PBM E-score |
| --- | --- |
| AATTAGAC | inactive: 0.132 |
| CTCTTGAA | inactive: 0.0114 |
| CACTGTGA | inactive: -0.0153 |
| AGATATCG | inactive: 0.014 |
| AGGGACCG | inactive: -0.228 |
| CGACGGGA | inactive: -0.138 |
| AGTAGTAA | inactive: 0.168 |
| AGCTGATC | inactive: 0.0339 |
| GCGATTCA | inactive: -0.0425 |
| CTCTCGAC | inactive: -0.175 |
| GCAGGGCA | inactive: -0.149 |
| ACGCTCAG | inactive: -0.0685 |
| AAAACATG | active: 0.419 |
| CAGTTACA | inactive: 0.274 |
| GCCCTCTA | inactive: -0.199 |
| AGCATAAT | inactive: 0.107 |
| CGATGACG | inactive: -0.114 |
| ACTCAGTC | inactive: -0.0261 |
| GCCAGTCA | inactive: -0.0635 |
| GAATCCCC | inactive: -0.127 |
| CACATCCG | inactive: 0.0767 |
| GCAAGAGC | inactive: 0.00324 |
| AGTGAATC | inactive: 0.0198 |
| CGGTTAAG | inactive: 0.0112 |

| Sequence | PBM E-score |
| --- | --- |
| AAGGACCT | inactive: -0.0582 |
| CGGTACAG | inactive: 0.115 |
| CCGATCTC | inactive: -0.101 |
| CAGCGTGG | inactive: -0.0919 |
| CCTTTTGA | inactive: 0.0524 |
| ACGCATCC | inactive: -0.0982 |
| ATTTGGTC | inactive: 0.0301 |
| ACATAACC | inactive: 0.22 |
| GTAGAGAC | inactive: -0.0618 |
| AACCAACT | inactive: 0.143 |
| CACTACCA | inactive: 0.115 |
| AAGTGTGC | inactive: 0.0232 |
| GCTGTTAC | inactive: 0.136 |
| GGTCTAAC | inactive: -0.0778 |
| CTAGCGCC | inactive: -0.209 |
| GCCTGGTA | inactive: 0.0903 |
| ACCACACG | inactive: 0.0673 |
| CATGGAGG | inactive: 0.0552 |
| CAAGCACC | inactive: -0.0192 |
| GACTCGAC | inactive: 0.0291 |
| CTTACCTA | inactive: 0.0194 |
| CTCCAAAA | inactive: -0.105 |
| CGGCTATA | inactive: -0.0256 |
| AACCCCTT | inactive: -0.0989 |

| Sequence | PBM E-score |
| --- | --- |
| AGTGCGCC | inactive: -0.17 |
| CTTTCAGC | inactive: -0.14 |
| GCCGAGAA | inactive: -0.127 |
| AGTTTCTA | inactive: 0.0215 |
| AAATTACA | active: 0.329 |
| CGCACTTC | inactive: -0.178 |
| CTTATATA | inactive: 0.101 |
| GCGGCTTA | inactive: -0.157 |
| GTCAAATA | inactive: 0.216 |
| CCTCGTTA | inactive: 0.0822 |
| CTATTTGC | inactive: 0.0523 |
| GAGTAGGA | inactive: -0.0546 |
| AAGATATC | inactive: 0.116 |
| CAACTAGA | inactive: 0.0825 |
| ATTACTCC | inactive: 0.0663 |
| AAGATTGT | inactive: 0.125 |
| AAGATTTG | inactive: 0.112 |
| CAACGTCC | inactive: -0.0773 |
| GATGATGA | inactive: 0.00564 |
| GTAGCCAC | inactive: -0.137 |
| AATTGGCG | inactive: -0.0318 |
| CCGTGACG | inactive: -0.0431 |
| AACTGCGC | ≥ -0.0217 |
| AGGGGAAA | inactive: -0.0794 |

| Sequence | PBM E-score |
| --- | --- |
| CATGTACA | active: 0.469 |
| CCGTTTAC | inactive: 0.0674 |
| CTTCAGAC | inactive: 0.0267 |
| CTATGTTA | inactive: 0.294 |
| GATTAGAA | inactive: 0.0661 |
| GGGCAAGA | inactive: -0.0635 |
| ACTCAGCG | inactive: -0.157 |
| CTCGCATC | inactive: -0.113 |
| AATGGTCT | inactive: 0.0107 |
| ATGACCTC | inactive: -0.0881 |
| AGCATGAA | inactive: 0.102 |
| ACTATGCG | inactive: 0.0796 |
| GCGTACAA | inactive: 0.256 |
| CACGGCTC | inactive: -0.102 |
| CGCAACCC | inactive: -0.102 |
| CTGTCAGC | inactive: -0.0171 |
| ACTACTGG | inactive: 0.0424 |
| ATCGAGGG | inactive: -0.127 |
| GACTGGAC | inactive: -0.151 |
| CTAGACTA | inactive: 0.0261 |
| GCCAGTAC | inactive: -0.00492 |
| CTTAAACA | inactive: 0.159 |
| CTAGGGGC | inactive: -0.216 |
| GAGGTAGA | inactive: 0.00792 |

| Sequence | PBM E-score |
| --- | --- |
| CTTTAGTC | inactive: -0.0734 |
| ATGCCGCG | inactive: -0.221 |
| CCTCATCG | inactive: -0.0048 |
| CGAATGCC | inactive: -0.153 |
| AGCTAATA | inactive: 0.129 |
| CATCGGAA | inactive: 0.117 |
| AATGCACA | inactive: 0.13 |
| ATAACCGC | inactive: 0.0257 |
| ATCAGGCG | inactive: -0.0921 |
| AACCCTTG | inactive: 0.0147 |
| AAATTGAG | inactive: -0.0322 |
| ATTAGCGG | inactive: -0.0813 |
| CGTTTAGC | inactive: -0.0194 |
| CTAGGTTA | inactive: 0.082 |
| GAGTACAC | inactive: 0.252 |
| GTGGAAAC | inactive: -0.036 |
| CATAAACA | inactive: 0.233 |
| ACAGGTCT | inactive: 0.093 |
| AAGTGGTG | inactive: 0.0246 |
| CGCTTTCC | inactive: -0.242 |
| CAGCCAAA | ≥ 0.00118 |
| ACACTCAC | inactive: 0.0262 |
